Out of some 45,000 compounds screened, about 200 (0.44%) were called active. About 7% were inconclusive and are not listed. The call rests on the fitted dose curve; in most records, active means well fitted activation curve with a large enough effect; inconclusive means small, poorly fitted or top-dose-only effect; inactive means no such curve, though single readings can be large or run the other way. The list shows a part of the results.
Experiment: qHTS of TDP-43 Inhibitors: NCGC Sytravon Library Screen; further: 0% is about no effect; nearly all actives have a fitted effect of over 55% in size
Conditions: yeast TDP-43 toxicity rescue, BacTiter-Glo growth, 24 h; series mostly up to 46.1 µM; growth rescue (activation): at the top concentration
Procedure, shortened: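 TDP-43-expressing yeast, pregrown in raffinose, seeded at OD600 0.02 in galactose medium with compound for 24 hr at 30 deg C. Growth read by BacTiter-Glo luminescence, so rescue of toxicity appears as activation.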

| SMILES | growth rescue (activation) |
| --- | --- |
| CC1CCN(C2CC(=O)N(c3ccccc3)C2=O)CC1 (stereo not given) | inactive: 19.9% |
| CCC1(C)Cc2c(sc3nc4n(c(=O)c23)CCCS4)CO1 (stereo not given) | inactive: 23.8% |
| COc1cc(CC(=O)N2CCC(n3nccc3NC(=O)C3CC3)CC2)cc(OC)c1OC | inactive: 16.1% |
| CCCN(CCC)c1ccc(CC(=O)NC(C)Cc2ccccc2)cc1 (stereo not given) | inactive: -1.98% |
| CCOc1ccc(N(CC(=O)NCCc2ccc(Cl)cc2)S(=O)(=O)c2c(C)[nH]c(=O)[nH]c2=O)cc1 | inactive: 4.36% |
| CCc1nc2ccc(C(=O)NCCN3CCOCC3)cn2c1N(C)Cc1ccc(OC)cc1 | inactive: -7.04% |
| CC(=O)N(C)c1ccc(NC(=S)Nc2cccc3ccccc23)cc1 | inactive: 33.8% |
| COCC(=O)N1CCC(Oc2ccc(C(=O)NCc3cc(C(C)C)no3)cc2)CC1 | inactive: -4.65% |
| CC(C)COC(=O)N1CCCCC1c1cc(C(=O)NCc2ccccc2)no1 (stereo not given) | inactive: 32.9% |
| O=C(N/N=C/c1ccccc1)C(=O)N/N=C/c1ccccc1 | inactive: 16.7% |
| COc1ccc(N2C(=O)C3C(C2=O)C(C(=O)c2ccccc2)N2CCCC32)cc1 (stereo not given) | inactive: -4.13% |
| NS(=O)(=O)c1ccc(Oc2ccc(S(N)(=O)=O)cc2)cc1 | inactive: -4.24% |
| COc1ccc(CNC(=O)C2CC(C)=C(C)CC2C(=O)O)cc1OC (stereo not given) | inactive: 5.48% |
| COc1ccc(/C=N/NC(=O)c2nc(-c3ccccc3)n(-c3ccccc3)n2)c(O)c1 | inactive: 1.22% |
| Cc1cc(N/C(=N/S(=O)(=O)c2cc(F)ccc2F)c2ccccc2)n(-c2ccccc2)n1 | inactive: 11.6% |
| NC(N)=Nc1nc2ccc(Cl)cc2c(=O)[nH]1 | inactive: 6.9% |
| COc1ccc(N2CCN(Cc3nnnn3C3CCCCC3)CC2)cc1 | inactive: -6.38% |
| CC(C)(C)N(Cc1nc(-c2ccccc2)no1)C(=O)c1ccc2c(c1)OCO2 | inactive: 25.9% |
| O=C(NCCCN1CCOCC1)Nc1ccc(Cc2ccc(NC(=O)NCCCN3CCOCC3)cc2)cc1 | inactive: 1.69% |
| Cc1ccc(-n2c(C)cc(C(=O)OCC(=O)N3CCOCC3)c2C)cc1 | inactive: -2.75% |
| COc1ccc(-c2noc(CNC(=O)c3ccc4c(c3)OCO4)n2)cc1 | inactive: -7.89% |
| CCN(CC)CCN1CCN(c2cnc(C)cn2)CC1 | inactive: -2.36% |
| O=C(Nc1ccc(Cc2ccncc2)cc1)c1ccc(S(=O)(=O)N2CCCC2)cc1 | inactive: 16.8% |
| C/C(=N\NC(=O)c1ccccc1)c1ccccc1F | inactive: 2.4% |
| COc1ccc(Cl)cc1NC(=O)CCn1c(=O)oc2ccccc21 | inactive: 4.9% |
| C/C=C(\C)CN1CCC(n2nccc2NC(=O)c2ccc3c(c2)OCO3)CC1 | inactive: -8.78% |
| CC(=O)c1ccc(OCc2c(-c3ccccc3)nnn2CC(=O)NS(=O)(=O)c2ccc(C)cc2)cc1 | inactive: -13% |

| SMILES | growth rescue (activation) |
| --- | --- |
| O=C(NC1CC2CCCC(C1)N2C(=O)Nc1cccc(F)c1)C1CC1 (stereo not given) | inactive: -14.9% |
| O=C(O)C1CCN(S(=O)(=O)c2ccc(Cl)s2)CC1 | inactive: 20.5% |
| CN(C(=O)COC(=O)c1ccc([N+](=O)[O-])cc1)c1ccccc1 | inactive: 8.91% |
| COc1ccccc1OC(C)C(=O)N1CCC(Cc2ccccc2)CC1 (stereo not given) | inactive: 13.7% |
| CCc1cccc(CC)c1NC(=O)COC(=O)c1ccccc1-c1nc2ccccc2s1 | inactive: 21.5% |
| Cc1cc(C)c(S(=O)(=O)Nc2ccc3[nH]c(=O)[nH]c3c2)c(C)c1 | inactive: 4.22% |
| COc1cccc(NC(=S)N2CCCC2)c1 | inactive: 6.74% |
| Cc1ccc(CNC(=O)Cn2cccc2C(=O)c2ccccc2C)cc1 | inactive: 16.4% |
| Cc1ccc(-c2csc(NC(=O)Cn3[nH]c(=O)c4ccccc4c3=O)n2)cc1 | inactive: 4.35% |
| O=C(O)c1ccc2c(c1)C(=O)N(c1nccs1)C2=O | inactive: -25.5% |
| CSc1ccc(CN2CCC(C)(Oc3ccc4ccccc4c3)C2)cc1 (stereo not given) | inactive: 11.4% |
| CSc1ccc(/C=C/C(=O)OCC(=O)N2CCN(c3ccccc3)CC2)cc1 | inactive: 4.01% |
| CC(C)CC(N)c1csc(Nc2cnccn2)n1 (stereo not given) | inactive: 3.91% |
| COC(=O)c1c(NC(=O)COC(=O)c2ccc(O)cc2)sc2c1CCCCC2 | inactive: -10.2% |
| Cc1c(CCNC(=O)C(C)(C)C)sc2nc(-c3ccc(F)cc3)nn12 | inactive: 15.4% |
| COc1ccc2[nH]c(C(=O)O)c(NC(=O)c3ccccc3[N+](=O)[O-])c2c1 | inactive: 27% |
| COc1ccc(OC)c(C(=O)c2ccc(C(=O)Nc3cccc4ccccc34)cc2)c1 | inactive: 9.89% |
| N#C/C(=C(/O)Cc1ccccc1)P(=O)(c1ccccc1)c1ccccc1 | inactive: 3.81% |
| CC1(C)Cc2c(c(-c3ccccc3)nc(N3CCOCC3)c2C(N)=O)CO1 | inactive: -23.6% |
| Cc1cccc(C)c1NC(=O)C(C)Sc1nnc(C)n1CC1CCCO1 (stereo not given) | inactive: -17.7% |
| CCOc1ccc(NC(=O)NC23CC4CC(CC(C4)C2)C3)cc1 | inactive: -0.162% |
| Cc1ccc(C(C(=O)NCC2CCCO2)N(C(=O)c2snc(C(N)=O)c2N)c2ccc3c(c2)OCCO3)cc1 (stereo not given) | inactive: -6.13% |
| COc1ccc(Cl)cc1N(CC(=O)N1CCCCC1)S(C)(=O)=O | inactive: 7.16% |
| CC(=O)c1c(C)oc2ccc(NS(=O)(=O)c3ccc(O)c(C(=O)O)c3)cc12 | inactive: -6.37% |
| Cc1cccc(NC(=S)Nc2ccc(Oc3ccccc3)cc2)n1 | inactive: 20.9% |
| CCN(Cc1ccccc1)c1ccc(/C=N/N=C(N)N)cc1 | inactive: 8.97% |
| O=C(CNCc1ccccc1Cl)Nc1ccc(C(=O)N2CCCCC2)cc1 | inactive: 6.52% |

| SMILES | growth rescue (activation) |
| --- | --- |
| COc1cc(OC)cc(C(=O)N2CCN(C3CCC(C)CC3)CC2)c1 (stereo not given) | inactive: 8.77% |
| Cc1ccc(-c2nc(N)sc2CC(=O)OCC(=O)NCC2CCCO2)cc1 (stereo not given) | inactive: 11.4% |
| Cc1cccc(C(=O)NCCNC(=O)c2ccccn2)c1 | inactive: -7.12% |
| CC1C[N+](=C2C=C(N3CCOCC3)CC(C)(C)C2)CC(C)O1 (stereo not given) | inactive: 5.83% |
| Cc1ccc2c(c1)nnn2C1CCN(S(=O)(=O)c2ccc(C(=O)N3C(C)CCCC3C)cc2)CC1 (stereo not given) | inactive: -1.55% |
| CC1CCCC(C)N1C(=O)CSc1ncccn1 (stereo not given) | inactive: 31.2% |
| Cc1ccc(C(=O)NNc2c3ccccc3nc3ccccc23)cc1 | inactive: 8.1% |
| Cc1ccc(CC(=O)N/N=C/c2ccc(OC(=O)c3ccc([N+](=O)[O-])cc3)cc2)cc1 | inactive: 9.53% |
| O=C(NCC(=O)N(c1ccc(Cl)cc1)C(C(=O)NC1CCCC1)c1cccnc1)c1ccco1 (stereo not given) | inactive: -3.83% |
| O=C(Nc1ccccc1)c1ccc(CN2CCc3ccccc3C2)cc1 | inactive: -2.62% |
| Cc1cc(C)n(C(=O)Cc2cn3ccsc3n2)n1 | inactive: -9.48% |
| CCN(CC)S(=O)(=O)c1ccc(NC(=O)COC(=O)CCc2cc(OC)c(OC)c(OC)c2)cc1 | inactive: -1.38% |
| CCc1nnc(NC(=O)c2sc3nc4c(cc3c2N)CCCCC4)s1 | inactive: -1.12% |
| Cc1cnc(CNC(=O)c2csc(COCCO)n2)cn1 | inactive: 12.2% |
| S=C1NCN(C2CCCCC2)CN1CCc1ccccc1 | inactive: 1.81% |
| Cc1cc(C)nc(NC(=O)c2cc(-c3ccc4c(c3)OCO4)nc3ccccc23)c1 | inactive: 27.5% |
| Cc1cs/c(=N\N=C2CCCCC2)n1Cc1ccco1 | inactive: 0.286% |
| CC(=O)Nc1ccc(S(=O)(=O)N2CCC(NC(=O)C(Cc3ccccc3F)NC(C)=O)CC2)cc1 (stereo not given) | inactive: 9.03% |
| CC1CCN(C(=O)COc2ccccc2F)CC1 | inactive: 11.5% |
| Cc1cc(C)cc(N2C(=O)C3C4C=CC(C4)C3C2=O)c1 (stereo not given) | inactive: -31.7% |
| O=C(N/C(=C/c1cn(-c2ccccc2)nc1-c1ccccc1)C(=O)N1CCOCC1)c1ccc(Cl)cc1Cl | inactive: -20.9% |
| CCOC(=O)N1CCN(C(=O)c2cc3c(=O)[nH]c4ccccc4c3s2)CC1 | inactive: 6% |
| Cc1ccc(S(=O)(=O)CCc2nnc(NC(=O)CCl)s2)cc1C | inactive: 2.27% |
| CC(=O)Nc1ccc(S(=O)(=O)NCC(=O)OCC(=O)NCc2ccc3c(c2)OCO3)cc1 | inactive: 8.61% |
| Cc1cc(C)n2nc(C(=O)N/N=C/c3c4ccccc4cc4ccccc34)nc2n1 | inactive: -9.36% |
| Cn1c(=O)c2cc(NC(=S)NCc3ccccc3F)ccc2n1Cc1cccc(C(F)(F)F)c1 | inactive: -10.8% |
| CCc1ccc(NC(=O)N2CCN(c3ccccc3)CC2)cc1 | inactive: 8% |

| SMILES | growth rescue (activation) |
| --- | --- |
| CCn1c(CSc2nc(C)cc(C)n2)nnc1SCC(N)=O | inactive: 2.73% |
| O=C(COC(=O)CCC(=O)c1ccc(F)cc1)NCc1ccccc1Cl | inactive: 10.3% |
| COc1ccc(Cl)cc1S(=O)(=O)NC(C)C(=O)NCCCn1ccnc1 (stereo not given) | inactive: 2.15% |
| COc1cc(/C(C)=N/NC(=O)Cc2c(C)[nH][nH]c2=O)ccc1O | inactive: 17.7% |
| Cc1nnc(NC(=O)CSc2nnc(CNC(=O)c3ccccc3F)n2C(C)C)s1 | inactive: 3.72% |
| O=C(CSc1ccc([N+](=O)[O-])cc1)NNC(=O)c1ccccc1F | inactive: 7.62% |
| N#C/C(=C\c1ccc(-c2ccc(F)cc2)o1)C(=O)Nc1nc(-c2cccs2)cs1 | inactive: 2.57% |
| O=C(COC(=O)c1cccnc1Nc1cccc(C(F)(F)F)c1)NC1CCS(=O)(=O)C1 (stereo not given) | inactive: -7.75% |
| Cc1ccc(-n2cc(CN(C)Cc3nccn3C)c(-c3cccc(C)c3)n2)cc1 | inactive: -10.9% |
| CCOc1ccccc1NC(=O)[C@@H](NC(=O)c1ccccc1F)C(C)C | inactive: -18.1% |
| O=C(CSc1nc2ncc(Cl)cc2[nH]1)NCC(=O)Nc1ccc(F)c(F)c1F | inactive: 5.65% |
| Cc1ccc(C)c(-n2cc(CN3CCN(C(=O)c4ncn[nH]4)CC3)c(-c3ccccc3)n2)c1 | inactive: -5.02% |
| O=C(NCCc1ccccc1)C1CCC(CNS(=O)(=O)c2cccc3cccnc23)CC1 (stereo not given) | inactive: 0.518% |
| Cc1cc(NS(=O)(=O)c2ccc(NC(=O)c3ccc([N+](=O)[O-])s3)cc2)nc(C)n1 | inactive: 38.4% |
| COc1ccc(C(=O)C[n+]2cc(-c3ccc(OC)cc3)n3c2CCCC3)cc1 | inactive: -0.751% |
| CC1(C)C(=O)NCCN1C(=O)c1ccc2nc(Cc3ccccc3F)oc2c1 | inactive: 5.22% |
| O=C(CSc1nncc2ccccc12)N1CCCCC1 | inactive: 4.06% |
| CC1Cc2ccccc2N1C(=O)CN1CCc2ccccc2C1 (stereo not given) | inactive: -10.8% |
| O=C(N/N=C/c1ccc(N2CCOCC2)cc1)C1CC1 | inactive: 8.16% |
| N#Cc1c(NC(=O)CSc2nc(-c3ccccc3)cc(C(F)(F)F)n2)sc2c1CCC2 | inactive: 7.02% |
| NS(=O)(=O)c1ccccc1 | inactive: -3.15% |
| Cc1cccn2c(CN3CCCC(c4ccccc4)C3)c(C(=O)N3CCOCC3)nc12 (stereo not given) | inactive: 4.26% |
| CCN(CC)C(=O)c1csc(COCCO)n1 | inactive: 1.02% |
| COc1ccc(NC(=S)N2CCC(NC(=O)c3ccc(OC)cc3)CC2)cc1 | inactive: 0.434% |

From PubChem BioAssay AID1347073 (National Center for Advancing Translational Sciences (NCATS), 2019)
